This note sets out measurements from PMC9911399, “Two distinct binding modes provide the RNA-binding protein RbFox with extraordinary sequence specificity”.

Residue numbers refer to the chain shown, from its start. This is one part of the list.

To fix the notation:
T1: RBFOX1 RRM (Homo sapiens, UniProt Q9NWB1 109-208)
T1 sequence: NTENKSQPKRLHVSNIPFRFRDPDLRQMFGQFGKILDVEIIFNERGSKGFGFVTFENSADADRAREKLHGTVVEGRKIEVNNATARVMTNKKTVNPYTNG

B1: CAGCGUC (DNA:RNA)
RNA: GGGAGACCGGAAUUCAGAUUGUCCCAGCGUCUUAAAUCCCGUCGUAGCCACCA
DNA 1: CAATCTGAATTCCGGTCTCCC
DNA 2: TGGTGGCTACGACGGGATT
B2: UACGACA (DNA:RNA)
RNA: B1 RNA with C25U, G27C, C28G, G29A, U30C, C31A
DNA 1: CAATCTGAATTCCGGTCTCCC
DNA 2: TGGTGGCTACGACGGGATT
B3: UGCGAGU (DNA:RNA)
RNA: GGGAGACCGGAAUUCAGAUUGUCCUGCGAGUUUAAAUCCCGUCGUAGCCACCA
DNA 1: CAATCTGAATTCCGGTCTCCC
DNA 2: TGGTGGCTACGACGGGATT
B4: GUCGUCC (DNA:RNA)
RNA: B3 RNA with U25G, G26U, A29U, G30C, U31C
DNA 1: CAATCTGAATTCCGGTCTCCC
DNA 2: TGGTGGCTACGACGGGATT
B5: ACGCCAA (DNA:RNA)
RNA: B1 RNA with C25A, A26C, G29C, U30A, C31A
DNA 1: CAATCTGAATTCCGGTCTCCC
DNA 2: TGGTGGCTACGACGGGATT
B6: CGGUAGC (DNA:RNA)
RNA: B1 RNA with A26G, C28U, G29A, U30G
DNA 1: CAATCTGAATTCCGGTCTCCC
DNA 2: TGGTGGCTACGACGGGATT
B7: AGGUCAU (DNA:RNA)
RNA: B3 RNA with U25A, C27G, G28U, A29C, G30A
DNA 1: CAATCTGAATTCCGGTCTCCC
DNA 2: TGGTGGCTACGACGGGATT
B8: GAGUGAC (DNA:RNA)
RNA: B1 RNA with C25G, C28U, U30A
DNA 1: CAATCTGAATTCCGGTCTCCC
DNA 2: TGGTGGCTACGACGGGATT
B9: GACUACG (DNA:RNA)
RNA: B3 RNA with U25G, G26A, G28U, G30C, U31G
DNA 1: CAATCTGAATTCCGGTCTCCC
DNA 2: TGGTGGCTACGACGGGATT
B10: GUCGUCG (DNA:RNA)
RNA: B3 RNA with U25G, G26U, A29U, G30C, U31G
DNA 1: CAATCTGAATTCCGGTCTCCC
DNA 2: TGGTGGCTACGACGGGATT
B11: GGAUGAU (DNA:RNA)
RNA: B3 RNA with U25G, C27A, G28U, A29G, G30A
DNA 1: CAATCTGAATTCCGGTCTCCC
DNA 2: TGGTGGCTACGACGGGATT
B12: AAGUUCU (DNA:RNA)
RNA: B1 RNA with C25A, C28U, G29U, U30C, C31U
DNA 1: CAATCTGAATTCCGGTCTCCC
DNA 2: TGGTGGCTACGACGGGATT
B13: AAGAUGU (DNA:RNA)
RNA: B1 RNA with C25A, C28A, G29U, U30G, C31U
DNA 1: CAATCTGAATTCCGGTCTCCC
DNA 2: TGGTGGCTACGACGGGATT
B14: ACACUCA (DNA:RNA)
RNA: B1 RNA with C25A, A26C, G27A, G29U, U30C, C31A
DNA 1: CAATCTGAATTCCGGTCTCCC
DNA 2: TGGTGGCTACGACGGGATT
B15: UUCCCUG (DNA:RNA)
RNA: B1 RNA with C25U, A26U, G27C, G29C, C31G
DNA 1: CAATCTGAATTCCGGTCTCCC
DNA 2: TGGTGGCTACGACGGGATT
B16: CGCACCC (DNA:RNA)
RNA: B1 RNA with A26G, G27C, C28A, G29C, U30C
DNA 1: CAATCTGAATTCCGGTCTCCC
DNA 2: TGGTGGCTACGACGGGATT
B17: ACGCUUU (DNA:RNA)
RNA: B1 RNA with C25A, A26C, G29U, C31U
DNA 1: CAATCTGAATTCCGGTCTCCC
DNA 2: TGGTGGCTACGACGGGATT
B18: AAUCAAG (DNA:RNA)
RNA: B1 RNA with C25A, G27U, G29A, U30A, C31G
DNA 1: CAATCTGAATTCCGGTCTCCC
DNA 2: TGGTGGCTACGACGGGATT
B19: ACAGGUC (DNA:RNA)
RNA: B1 RNA with C25A, A26C, G27A, C28G
DNA 1: CAATCTGAATTCCGGTCTCCC
DNA 2: TGGTGGCTACGACGGGATT
B20: AGAAUGG (DNA:RNA)
RNA: B3 RNA with U25A, C27A, G28A, A29U, U31G
DNA 1: CAATCTGAATTCCGGTCTCCC
DNA 2: TGGTGGCTACGACGGGATT
B21: GCAAAAA (DNA:RNA)
RNA: B3 RNA with U25G, G26C, C27A, G28A, G30A, U31A
DNA 1: CAATCTGAATTCCGGTCTCCC
DNA 2: TGGTGGCTACGACGGGATT
B22: AAAGAGA (DNA:RNA)
RNA: B3 RNA with U25A, G26A, C27A, U31A
DNA 1: CAATCTGAATTCCGGTCTCCC
DNA 2: TGGTGGCTACGACGGGATT
B23: AGGUAUA (DNA:RNA)
RNA: B1 RNA with C25A, A26G, C28U, G29A, C31A
DNA 1: CAATCTGAATTCCGGTCTCCC
DNA 2: TGGTGGCTACGACGGGATT
B24: CCGGGUA (DNA:RNA)
RNA: B1 RNA with A26C, C28G, C31A
DNA 1: CAATCTGAATTCCGGTCTCCC
DNA 2: TGGTGGCTACGACGGGATT
B25: GACGAUU (DNA:RNA)
RNA: B3 RNA with U25G, G26A, G30U
DNA 1: CAATCTGAATTCCGGTCTCCC
DNA 2: TGGTGGCTACGACGGGATT
B26: CAGUGCU (DNA:RNA)
RNA: B1 RNA with C28U, U30C, C31U
DNA 1: CAATCTGAATTCCGGTCTCCC
DNA 2: TGGTGGCTACGACGGGATT
B27: AAUAUUA (DNA:RNA)
RNA: B1 RNA with C25A, G27U, C28A, G29U, C31A
DNA 1: CAATCTGAATTCCGGTCTCCC
DNA 2: TGGTGGCTACGACGGGATT
B28: UCACCUG (DNA:RNA)
RNA: B1 RNA with C25U, A26C, G27A, G29C, C31G
DNA 1: CAATCTGAATTCCGGTCTCCC
DNA 2: TGGTGGCTACGACGGGATT
B29: AUAAAGU (DNA:RNA)
RNA: B3 RNA with U25A, G26U, C27A, G28A
DNA 1: CAATCTGAATTCCGGTCTCCC
DNA 2: TGGTGGCTACGACGGGATT
B30: ACUGCAU (DNA:RNA)
RNA: B3 RNA with U25A, G26C, C27U, A29C, G30A
DNA 1: CAATCTGAATTCCGGTCTCCC
DNA 2: TGGTGGCTACGACGGGATT
B31: ACAUGAG (DNA:RNA)
RNA: B1 RNA with C25A, A26C, G27A, C28U, U30A, C31G
DNA 1: CAATCTGAATTCCGGTCTCCC
DNA 2: TGGTGGCTACGACGGGATT

The target of this assay is T1, RBFOX1 RRM. Nature of the assay: EMSA; HiTS-Eq, 1 nM pool, 10 min; buffer printed only for the single-RNA assays: 10 mM Tris pH 7.5, 150 mM NaCl, 3.4 mM EDTA, 0.001% NP-40, 30 C. The conditions noted are these: tags: His6 N-terminal (pET28a); label: 5' 32P. The method in brief:
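Purified wild-type or mutant RbFox RRM at increasing concentrations was equilibrated with 1 nM of 5′-radiolabelled RNA carrying 7 randomized nucleotides for 10 min in 50 µL. Unbound RNA was separated by 8% native PAGE and sequenced. Relative association constants came from read-count changes of each RNA species compared with the control reaction, normalised to the cognate motif.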
A general note: In EMSA bound probe runs differently from free probe, usually more slowly.
Turning to B1, the binding signal is 0.00509 KA relative to UGCAUGU.
As to B2, the binding signal is 0.00182 KA relative to UGCAUGU.
As for B3, the figure is 0.0291 KA relative to UGCAUGU.
As for B4, the figure is 0.0149 KA relative to UGCAUGU; as for B5, 0.00192 KA relative to UGCAUGU; as for B6, 0.0146 KA relative to UGCAUGU.
Under B7 stands 0.011 KA relative to UGCAUGU; under B8, 0.00727 KA relative to UGCAUGU; under B9, 0.0106 KA relative to UGCAUGU.
For the molecule B10, the binding signal was 0.017 KA relative to UGCAUGU.
As for B11, the figure is 0.0235 KA relative to UGCAUGU; as for B12, 0.00716 KA relative to UGCAUGU.
As for B13, the figure is 0.00916 KA relative to UGCAUGU.
Under B14 stands 0.00153 KA relative to UGCAUGU.
For the molecule B15, the binding signal is 0.0127 KA relative to UGCAUGU.
As for B16, the figure is 0.0102 KA relative to UGCAUGU.
As for B17, the figure is 0.00817 KA relative to UGCAUGU.
As for B18, the figure is 0.00185 KA relative to UGCAUGU; as for B19, 0.00691 KA relative to UGCAUGU; as for B20, 0.0127 KA relative to UGCAUGU.
Take B21: the binding signal was 0.00148 KA relative to UGCAUGU.
Under B22 stands 0.0065 KA relative to UGCAUGU; under B23, 0.00421 KA relative to UGCAUGU; under B24, 0.0175 KA relative to UGCAUGU.
For the molecule B25, the binding signal is 0.00862 KA relative to UGCAUGU.
Turning to B26, the binding signal was 0.0142 KA relative to UGCAUGU.
As for B27, the figure is 0.000658 KA relative to UGCAUGU; as for B28, 0.0101 KA relative to UGCAUGU.
For the molecule B29, the binding signal was 0.00153 KA relative to UGCAUGU.
On to B30, for which the binding signal was 0.0118 KA relative to UGCAUGU.
As for B31, the figure is 0.0103 KA relative to UGCAUGU.
